From publication PMC11696715
Results are given in words; binding and its absence hold for the method and conditions named. In cells and extracts the contact can be indirect. Some results given as binding are weak or reduced against the parent protein; the word gives no strength.

Sequences of proteins named here, by UniProt entry; tags and fusion partners are left off. A change or cut given only in a name is not applied to a line headed by its entry.
UniProt P58801: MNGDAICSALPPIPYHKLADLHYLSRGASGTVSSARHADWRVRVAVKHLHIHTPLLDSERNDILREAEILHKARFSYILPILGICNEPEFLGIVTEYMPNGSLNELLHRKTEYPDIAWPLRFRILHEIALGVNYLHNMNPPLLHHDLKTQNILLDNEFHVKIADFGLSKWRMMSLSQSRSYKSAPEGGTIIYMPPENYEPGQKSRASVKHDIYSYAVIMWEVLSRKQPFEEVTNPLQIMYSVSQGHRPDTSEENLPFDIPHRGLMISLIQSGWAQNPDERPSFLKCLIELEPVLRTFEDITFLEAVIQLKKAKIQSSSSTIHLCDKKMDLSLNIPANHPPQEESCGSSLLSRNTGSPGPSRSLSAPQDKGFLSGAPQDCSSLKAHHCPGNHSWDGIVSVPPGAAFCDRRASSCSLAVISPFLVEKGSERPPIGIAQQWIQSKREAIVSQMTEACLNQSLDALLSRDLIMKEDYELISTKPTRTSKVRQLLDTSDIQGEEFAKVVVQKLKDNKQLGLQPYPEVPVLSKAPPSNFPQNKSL
UniProt P63330: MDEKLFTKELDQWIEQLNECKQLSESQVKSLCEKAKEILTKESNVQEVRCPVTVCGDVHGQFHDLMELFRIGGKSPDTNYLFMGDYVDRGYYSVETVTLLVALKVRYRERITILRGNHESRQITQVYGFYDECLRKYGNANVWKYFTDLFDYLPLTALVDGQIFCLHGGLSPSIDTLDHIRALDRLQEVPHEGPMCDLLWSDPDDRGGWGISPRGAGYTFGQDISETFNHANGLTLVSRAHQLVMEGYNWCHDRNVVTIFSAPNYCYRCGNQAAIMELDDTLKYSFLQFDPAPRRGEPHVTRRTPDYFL

T1: Myb-like, SWIRM, and MPN domains 1 (MYSM1) (mouse (endogenous in primary chondrocytes)) (UniProt Q69Z66)
T1 sequence: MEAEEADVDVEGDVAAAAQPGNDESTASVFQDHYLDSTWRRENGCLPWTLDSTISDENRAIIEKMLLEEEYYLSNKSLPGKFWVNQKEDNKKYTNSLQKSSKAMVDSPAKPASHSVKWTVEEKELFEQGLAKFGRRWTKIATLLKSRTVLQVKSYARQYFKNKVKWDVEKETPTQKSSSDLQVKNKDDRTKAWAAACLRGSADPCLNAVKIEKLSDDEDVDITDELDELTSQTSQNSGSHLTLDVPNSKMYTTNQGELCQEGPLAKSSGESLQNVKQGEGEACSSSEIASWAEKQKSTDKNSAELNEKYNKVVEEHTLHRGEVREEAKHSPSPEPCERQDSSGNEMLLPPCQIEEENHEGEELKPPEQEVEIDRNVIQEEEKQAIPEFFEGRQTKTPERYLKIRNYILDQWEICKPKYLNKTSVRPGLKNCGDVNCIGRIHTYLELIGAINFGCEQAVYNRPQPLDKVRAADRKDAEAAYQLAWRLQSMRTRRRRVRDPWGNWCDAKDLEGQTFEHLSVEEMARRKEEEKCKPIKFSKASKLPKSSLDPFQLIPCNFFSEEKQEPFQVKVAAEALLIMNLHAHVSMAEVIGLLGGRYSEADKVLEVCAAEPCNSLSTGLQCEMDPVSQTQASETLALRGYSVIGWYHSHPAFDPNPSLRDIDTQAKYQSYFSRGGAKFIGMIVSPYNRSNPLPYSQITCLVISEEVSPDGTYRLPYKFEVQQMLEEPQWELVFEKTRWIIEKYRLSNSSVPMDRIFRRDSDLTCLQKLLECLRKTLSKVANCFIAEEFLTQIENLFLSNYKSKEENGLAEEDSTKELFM


How the values were obtained:
[1] = target: Receptor-interacting protein kinase 2 (RIPK2) (mouse (endogenous in primary chondrocytes)) (UniProt P58801); test: co-IP; immunoprecipitation with anti-RIPK2 antibody from chondrocyte lysate, without IL-1β; blots for PP2Ac and MYSM1 (Fig. 6d)
[2] = target: Receptor-interacting protein kinase 2 (RIPK2) (mouse (endogenous in primary chondrocytes)) (UniProt P58801); test: co-IP; immunoprecipitation with anti-RIPK2 antibody from lysate of chondrocytes exposed to IL-1β for 6 hours; blots for PP2Ac and MYSM1 (Fig. 6d)
[3] = target: exogenous RIPK2 (wild-type Ripk2 plasmid) (UniProt P58801); test: co-IP; immunoprecipitation of exogenous RIPK2, RIPK2 S176A and RIPK2 S176D with PP2Ac in mouse chondrocytes (Fig. 6h); the precipitating antibody is not stated
[4] = target: exogenous RIPK2 S176A (UniProt P58801); test: as above
[5] = target: exogenous RIPK2 S176D (UniProt P58801); test: as above
[6] = target: T1, Myb-like, SWIRM, and MPN domains 1 (MYSM1) (mouse (endogenous in primary chondrocytes)); test: co-IP; endogenous proteins in lysate of mouse primary chondrocytes; primary antibody or IgG with protein A/G beads, overnight at 4 °C; RIPK2 co-immunoprecipitated with MYSM1 (Fig. 4h); also after IL-1β induction for 15, 30 and 60 minutes, which weakened the interaction (Fig. 4k)

| Molecule | binding [1] | binding [2] | binding [3] | binding [4] | binding [5] | binding [6] |
| --- | --- | --- | --- | --- | --- | --- |
| Ppp2ca (PP2Ac), catalytic subunit (C subunit) of protein phosphatase 2A (from UniProt P63330 1-309) (enzyme) | binds | no binding (condition: with IL-1β exposure for 6 hours) | binds | binds | binds |  |
| Receptor-interacting protein kinase 2 (RIPK2) (from UniProt P58801 1-539) |  |  |  |  |  | binds |
| Myb-like, SWIRM, and MPN domains 1 (MYSM1) (protein, UniProt Q69Z66 1-819) MEAEEADVDVEGDVAAAAQPGNDESTASVFQDHYLDSTWRRENGCLPWTLDSTISDENRAIIEKMLLEEEYYLSNKSLPGKFWVNQKEDNKKYTNSLQKSSKAMVDSPAKPASHSVKWTVEEKELFEQGLAKFGRRWTKIATLLKSRTVLQVKSYARQYFKNKVKWDVEKETPTQKSSSDLQVKNKDDRTKAWAAACLRGSADPCLNAVKIEKLSDDEDVDITDELDELTSQTSQNSGSHLTLDVPNSKMYTTNQGELCQEGPLAKSSGESLQNVKQGEGEACSSSEIASWAEKQKSTDKNSAELNEKYNKVVEEHTLHRGEVREEAKHSPSPEPCERQDSSGNEMLLPPCQIEEENHEGEELKPPEQEVEIDRNVIQEEEKQAIPEFFEGRQTKTPERYLKIRNYILDQWEICKPKYLNKTSVRPGLKNCGDVNCIGRIHTYLELIGAINFGCEQAVYNRPQPLDKVRAADRKDAEAAYQLAWRLQSMRTRRRRVRDPWGNWCDAKDLEGQTFEHLSVEEMARRKEEEKCKPIKFSKASKLPKSSLDPFQLIPCNFFSEEKQEPFQVKVAAEALLIMNLHAHVSMAEVIGLLGGRYSEADKVLEVCAAEPCNSLSTGLQCEMDPVSQTQASETLALRGYSVIGWYHSHPAFDPNPSLRDIDTQAKYQSYFSRGGAKFIGMIVSPYNRSNPLPYSQITCLVISEEVSPDGTYRLPYKFEVQQMLEEPQWELVFEKTRWIIEKYRLSNSSVPMDRIFRRDSDLTCLQKLLECLRKTLSKVANCFIAEEFLTQIENLFLSNYKSKEENGLAEEDSTKELFM | binds |  |  |  |  |  |
